Here are results for 110 sequences from the supplement of paper PMC4466236.

In all, about 33,000 sequences were measured (“E-score (dimensionless, -0.5 to 0.5)”: median about -0.058, highest 2% from about 0.35 on). Some of the results follow.

The experiment has as its system MvaT. Kind of experiment: PBM 8-mer E-score (mean of HK and ME arrays) (E-score (dimensionless, -0.5 to 0.5)); higher = stronger relative binding preference; most listed sequences are background and not binding sites. On the procedure:
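Protein binding microarray: GST-tagged full-length MvaT (P. aeruginosa PAO1) bound to two universal double-stranded 60-mer arrays (ME and HK), each with a constant 25-mer primer and a variable 35-mer region covering all 8-mers. The 8-mer E-score (rank-based, range -0.5 to 0.5, >0.45 = specific binding) is the mean of the two arrays.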
As for AATAGGGC, the “PBM 8-mer E-score” value is 0.0251.
The value for ACTTTCAT was 0.262.
With ATCAGAAA the figure was 0.0788; with AACGCCCC, -0.342.
ATTCTCAG: the “PBM 8-mer E-score” value stood at 0.143.
The value for TCTGCAAA was -0.0149.
AGAGCCTA: the “PBM 8-mer E-score” value was -0.135.
With AGCGCCGA the figure was -0.162.
The value for GTACATAC was 0.135; that for ATCACAAC was 0.0888.
Consider CTCCTTTA, for which the “PBM 8-mer E-score” value is -0.0694.
With ATGCTATA the figure was 0.246; with AAGAAATA, 0.27.
For the sequence GCAATAGA, the “PBM 8-mer E-score” value was 0.127.
AACACGTT: the “PBM 8-mer E-score” value is -0.0733.
With GCTCCACA the figure was -0.0692; with ACGAAAAG, 0.062; with CAACTGAC, 0.101.
The value for GAAAAAGC was 0.0195.
With AATGGGAA the figure was -0.00976; with AACATGGC, 0.0422.
For GGGGCACC, the “PBM 8-mer E-score” value is -0.313.
The value for ATACAATG was 0.204.
The value for CGGTGAAA was 0.0483; that for AAGAAGAT was 0.115.
The value for AAAGTAAA was 0.306.
Turning to CTTTTCCC, the “PBM 8-mer E-score” value is -0.0265.
Take ATGAGTAA: the “PBM 8-mer E-score” value worked out at 0.14.
For AGAAAGTG, the “PBM 8-mer E-score” value came out at 0.168.
Take ATTGCATC: the “PBM 8-mer E-score” value was -0.116.
The value for GAAACTGA was 0.0684; that for CCGACCTA was -0.209; that for AAAGACCG was -0.0757.
With CGCCTTGA the figure was -0.182; with TCGGTCAA, -0.0832; with CGTCGCTA, -0.0982.
Regarding GCACTCCC, the “PBM 8-mer E-score” value was -0.12.
Regarding ATCGAGAT, the “PBM 8-mer E-score” value is 0.0901.
The value for CAAATCTG was 0.0463; that for ACATAAGT was 0.28; that for GATTAAGC was 0.116.
The value for AAACTTCA was 0.198.
As for CTCCCCGA, the “PBM 8-mer E-score” value is -0.203.
With ACGCGACG the figure was -0.208; with CACTACAA, 0.0235; with AAAGTTCT, 0.265.
Turning to ACGGCGAT, the “PBM 8-mer E-score” value is -0.0139.
Consider AATTTAGC, for which the “PBM 8-mer E-score” value is 0.227.
Turning to ACACATAG, the “PBM 8-mer E-score” value was found to be 0.0946.
Take GACTCGTA: the “PBM 8-mer E-score” value is -0.162.
The value for AGAGTGTG was 0.162; that for ACAGTTAG was 0.141.
Regarding CAAAGCGG, the “PBM 8-mer E-score” value is -0.128.
The value for AGCGTCAT was -0.205.
With CACTATGG the figure was -0.00157; with CTTTACGC, 0.172; with CAATCCAG, 0.0618.
With AGCTATTA the figure was 0.27; with TCTGACAA, -0.0339; with CCGTTCCA, -0.0556.
On to CGCAACTA, for which the “PBM 8-mer E-score” value was 0.197.
On to CGTTAACG, for which the “PBM 8-mer E-score” value was determined as 0.156.
Consider CAAGAACC, for which the “PBM 8-mer E-score” value was -0.125.
On to TGCCGTAA, for which the “PBM 8-mer E-score” value came out at 0.0424.
As for GAGCCTAA, the “PBM 8-mer E-score” value is -0.11.
The value for GAAGGCGC was -0.239; that for ATAATTCA was 0.325.
With AGATCGCC the figure was -0.119; with CAGAACGA, -0.151.
As for CATAGGAC, the “PBM 8-mer E-score” value was 0.0732.
For the sequence GTTCTACA, the “PBM 8-mer E-score” value amounted to 0.114.
Turning to CGGCTGCA, the “PBM 8-mer E-score” value was -0.19.
As for AGAAACCA, the “PBM 8-mer E-score” value was found to be 0.0491.
As to GGGGAAAA, the “PBM 8-mer E-score” value is -0.0416.
With ATCCTAGC the figure was -0.0493; with ATGCCTGG, -0.224; with CCCATACA, -0.0841.
With ACCTAAAC the figure was 0.0896; with ATTGCAGC, 0.0188.
Consider ACAGCGGG, for which the “PBM 8-mer E-score” value is -0.0961.
The value for GCTACGTA was -0.101; that for ACTTGCAT was 0.217.
As to GTTTATAA, the “PBM 8-mer E-score” value was found to be 0.383.
For the sequence CGAGTCTC, the “PBM 8-mer E-score” value was -0.159.
The value for CGACCTAA was 0.00602; that for AGAAGAGG was -0.186.
With ATAACTAC the figure was 0.272.
For the sequence CACCCCTC, the “PBM 8-mer E-score” value is -0.247.
Regarding ACCCGTGC, the “PBM 8-mer E-score” value is -0.0911.
With CCTGCAGG the figure was -0.313.
The value for CAAGATTG was 0.00401; that for CATAGTCA was 0.0109.
With GAAGAAAA the figure was 0.042.
In the case of GCCACCGC, the “PBM 8-mer E-score” value was -0.193.
Take ATCGGTTA: the “PBM 8-mer E-score” value was 0.0592.
Consider CCCTGGCC, for which the “PBM 8-mer E-score” value was -0.346.
On to CTTTATTC, for which the “PBM 8-mer E-score” value turned out to be 0.209.
With CCTTTATC the figure was 0.136; with CTCCCAGC, -0.251; with ATTATTCA, 0.328.
In the case of TAAGGATA, the “PBM 8-mer E-score” value turned out to be 0.171.
The value for CGACCCCG was -0.227; that for CGCTTAAA was 0.181.
The value for CATTTTGA was 0.174.
With GAGGCTCA the figure was -0.295; with GCATACAC, 0.0199; with AAATATAG, 0.332.
Regarding AGACTACG, the “PBM 8-mer E-score” value is -0.25.
The value for CGCACCCC was -0.26.
The value for TTAGCCAA was 0.12.
